# Results from PubChem BioAssay AID504832 (National Center for Advancing Translational Sciences (NCATS), 2011).
# Among all 310,000 compounds or so, about 18,000 (5.8%) were called active. Inconclusive results, whose numbers are uncertain, are shown with a selection of clear calls. Calls come from the whole dose curve; as a rule, active = well fitted inhibition curve with a large enough effect; inconclusive = small, poorly fitted or top-dose-only effect, or another doubt; inactive = no such curve, though single readings can be large or run the other way. Potencies of inconclusive entries are left out as doubtful fits.
# Test: Primary qHTS for delayed death inhibitors of the malarial parasite plastid, 48 hour incubation
# Conditions: P. falciparum luciferase growth in erythrocytes; series mostly up to 28.7 µM
# Method in brief: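 Erythrocytes infected with P. falciparum carrying an integrated firefly luciferase reporter (2% hematocrit, 0.1% parasitemia final) were exposed to compounds in RPMI 1640 with 0.5% Albumax at 37 C, 5% CO2. Growth inhibition was scored as reduced luminescence.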
# Potency is the fitted concentration of half-maximal effect; tags give direction and shape of the fitted curve.
row,Compound,Potency
1,COc1ccccc1N(C)S(=O)(=O)c1ccc(C(=O)N2CCCC(C(F)(F)F)C2)cc1 (configuration not stated),"inconclusive [inhibitor, single point]"
2,COc1cccc(-c2cn3nc(C)c(C)nc3n2)c1,inactive
3,O=C(CN1C(=O)NC2(CCCCCC2)C1=O)N1CCN(S(=O)(=O)c2ccc(Cl)cc2)CC1,"inconclusive [inhibitor, partial curve, poor fit]"
4,O=C(c1ccco1)N1CCN(c2ncnc3c2nnn3Cc2ccccc2Cl)CC1,active: 11.7 µM
5,CCOCCCNC(=S)NCCNc1nc2ccc(C)cc2cc1C#N,"inconclusive [inhibitor, single point]"
6,NS(=O)(=O)c1ccc(NC(=S)N2CCC(Cc3ccccc3)CC2)cc1,inactive
7,Cc1noc(/C=C/c2nn(C)cc2Cl)c1[N+](=O)[O-],"inconclusive [inhibitor, partial curve]"
8,CN(C)c1nc(NCc2ccccc2)nc(N/N=C/c2ccc3c(c2)OCO3)n1,active: 11.7 µM
9,CCn1c(COc2ccc(C)cc2)nnc1SCC(=O)C(C)(C)C,"inconclusive [inhibitor, single point]"
10,CS(=O)(=O)N(Cc1ccc(Cl)cc1)c1ccc(C(=O)NCc2ccccn2)cc1,"inconclusive [inhibitor, single point]"
11,O=C(CNC(=S)N(Cc1ccccc1)Cc1cccs1)NCc1ccc(F)cc1,"inconclusive [inhibitor, single point]"
12,COc1cc(CNC(C)c2ccccc2)cc(Br)c1OCc1ccc(F)cc1 (configuration not stated),"inconclusive [inhibitor, partial curve, poor fit]"
13,CC(C)(C)NC(=O)NC(=O)COC(=O)c1cc[n+]([O-])cc1,inactive
14,CC1CCC(NC(=O)C2CCC(CNc3c(N4CCCCC4)c(=O)c3=O)CC2)CC1 (configuration not stated),"inconclusive [inhibitor, partial curve, poor fit]"
15,COc1ccc(C(OC(=O)c2c(C)noc2C)C(=O)NC2CCCC2)cc1 (configuration not stated),"inconclusive [inhibitor, partial curve, poor fit]"
16,CCSc1ccc([C@@H]2[C@@H]3C(=O)N(C)C(=O)[C@@H]3[C@]3(C(=O)OC)CCCCN23)cc1,active: 8.28 µM
17,COc1ccc(CN(C(=O)c2nsc(Cl)c2Cl)C(C(=O)NC2CCCCC2)c2ccc(OC)cc2)cc1 (configuration not stated),"inconclusive [inhibitor, partial curve]"
18,COc1cc(CN2CCN(c3ccccc3F)CC2)cc(OC)c1O,inactive
19,CCCC(C)NC(=O)COc1ccc(Sc2ccc(OCC(=O)NC(C)CCC)cc2)cc1 (configuration not stated),active: 7.38 µM
20,C=CCOc1ccccc1CN1CCC(C(=O)Nc2cccc(-c3ccn[nH]3)c2)CC1,"inconclusive [inhibitor, single point]"
21,CC(C)(C)CN1CCN(Cc2nc(-c3ccc(F)cc3)cs2)CC1CCO (configuration not stated),"inconclusive [inhibitor, single point]"
22,c1ccc(-c2csc3nnc(SCc4ccc5c(c4)OCO5)n23)cc1,"inconclusive [inhibitor, single point]"
23,Cc1ccc(NC2c3ncccc3C(=O)N2c2ccccc2C)cc1C (configuration not stated),inactive

row,Compound,Potency
1,CCOC(=O)C1CCCN(C(=O)c2ccc(NC(=O)CC3SC(N4CCCC4)=NC3=O)cc2)C1 (configuration not stated),active: 10.4 µM
2,Cc1cc(/C=N/NC(N)=O)c(C)n1-c1ccc(F)cc1,inactive
3,COc1ccc(-c2cnnn2-c2ccc(NC(=O)/C=C/c3ccc(OC)c(OC)c3)cc2)cc1,"inconclusive [inhibitor, single point]"
4,CCOc1ccc(S(=O)(=O)N2CCCCCC2)c2ccccc12,"inconclusive [inhibitor, partial curve, poor fit]"
5,CCOC(=O)C1CCN(S(=O)(=O)c2cccc(-c3cn4cc(Cl)ccc4n3)c2)CC1,"inconclusive [inhibitor, single point]"
6,Cc1ccc(C)c(Cn2nnc3c(=O)[nH]c(C(=O)NCC4CCCO4)nc32)c1 (configuration not stated),"inconclusive [inhibitor, single point]"
7,Nc1[nH]c(N=NC(=O)c2ccc(F)cc2)c2ccccc12,inactive
8,CC(=O)c1ccc(NC(=O)CCCN2C(=O)COc3ccc(C)cc32)cc1,inactive
9,CCNc1ccc(C(=O)OCC)cc1NC(=O)c1cccc(S(=O)(=O)N(C)c2ccccc2)c1,"inconclusive [inhibitor, partial curve, poor fit]"
10,CCOC(=O)Cc1csc(NC(=O)Nc2cccc(OC)c2)n1,"inconclusive [inhibitor, partial curve, poor fit]"
11,CC(CS(=O)(=O)c1ccc2c(c1)NC(=O)CS2)C(=O)N1CCN(c2cccc(Cl)c2)CC1 (configuration not stated),"inconclusive [inhibitor, partial curve, poor fit]"
12,CCN(c1cccc(C)c1)c1ncnc2nc[nH]c12,"inconclusive [inhibitor, partial curve, poor fit]"
13,Cc1c(NC(=S)NC(=O)c2ccc(-c3ccc(Cl)cc3)o2)cccc1C(=O)O,inactive
14,CCSc1oc(-c2ccco2)nc1S(=O)(=O)c1ccccc1,"inconclusive [inhibitor, single point]"
15,O=C(NCc1ccco1)C1CCN(S(=O)(=O)N2CCC3(CC2)OCCO3)CC1,inactive
16,COc1cccc(O)c1CN1CCC(C(=O)Nc2ccc(-c3cccc(C)c3)cc2)CC1,active: 4.15 µM
17,CCN(CC)C(=O)C1CCN(S(=O)(=O)c2c(C)noc2/C=C/c2cccc(C)c2)CC1,"inconclusive [inhibitor, partial curve]"
18,COc1cccc(CNc2nc3ccccc3n2CCN2CCCCC2)c1,"inconclusive [inhibitor, single point]"
19,CCOC(=O)N1CCC(NC(=O)c2ccc3c(c2)N=C(CC)c2ccccc2S3)CC1,"inconclusive [inhibitor, partial curve]"
20,Cc1ccc(S(=O)(=O)NCC(=O)NC2CC2)cc1,inactive
21,CCCSC(=S)NC1CCS(=O)(=O)C1 (configuration not stated),"inconclusive [inhibitor, single point]"
22,CCCN1CCN(CCCNC(=O)c2ccccc2NC(=O)C2=C(C)OCCS2)CC1,"inconclusive [inhibitor, single point]"
23,NC(=O)c1nnn(-c2ccccc2)c1N,inactive

row,Compound,Potency
1,Cc1nnc(-c2ccccc2)nc1N(C)C,inactive
2,O=C(c1cccc(-c2ccccc2)c1)N1CC[C@@H](N2CCC(O)CC2)[C@H](O)C1,"inconclusive [inhibitor, partial curve, poor fit]"
3,S=C(Nc1ccccc1)N1CCOCCOCCN(C(=S)Nc2ccccc2)CCOCCOCC1,"inconclusive [inhibitor, partial curve]"
4,COc1cc(/C=C/C(=O)NC(C)C2CC3CCC2C3)cc(OC)c1OC (configuration not stated),"inconclusive [inhibitor, single point]"
5,O=C(CN1c2cccc3cccc(c23)S1(=O)=O)Nc1ccc(S(=O)(=O)N2CCOCC2)cc1,"inconclusive [inhibitor, single point]"
6,Cc1nnc(SCC(=O)Nc2ccc3c(c2)OCCO3)s1,"inconclusive [inhibitor, single point]"
7,CC1(C)CC(=O)C=C(NCCN2CCN(C(=S)Nc3ccccc3)CC2)C1,"inconclusive [inhibitor, full curve]"
8,Cc1cccc(CC(=O)Nc2sc(C(C)C)cc2C(=O)N2CCOCC2)c1,inactive
9,CN1C(=O)N(C)C(=O)C2(Cc3cc(NC(=O)c4ccc(F)cc4)ccc3N3CCCC32)C1=O (configuration not stated),"inconclusive [inhibitor, partial curve, poor fit]"
10,Cc1cc(NC(=O)C2CC2)n(-c2nc3ccccc3s2)n1,inactive
11,CCCCN(CC)C(=O)Cn1nc(Cc2ccncc2)c2ccccc2c1=O,"inconclusive [inhibitor, partial curve, poor fit]"
12,Cc1ccc(/C=N/NC(=O)CSc2nc3ccccc3n2Cc2ccc(Cl)cc2)o1,"inconclusive [inhibitor, partial curve]"
13,O=C(CCC1CCCCC1)NCc1cccnc1,inactive
14,COC(=O)c1cc(Br)ccc1N(Cc1cc(OC)cc(OC)c1)S(C)(=O)=O,"inconclusive [inhibitor, single point]"
15,COc1ccc(C2c3sc(=O)[nH]c3SC3C4CCC(C4)C23)cc1OC (configuration not stated),"inconclusive [inhibitor, partial curve, poor fit]"
16,Cc1cc(NS(=O)(=O)c2ccc(NC(=O)c3cnc(Cl)c(Cl)c3)cc2)nc(C)n1,"inconclusive [inhibitor, single point]"
17,CC1CCCCC1NC(=O)c1ccc(CSc2nc3ccncc3[nH]2)cc1 (configuration not stated),"inconclusive [inhibitor, single point]"
18,CCOC(=O)C1(CCOc2ccccc2)CCN(Cc2ccc(C#CCCO)cc2)CC1,"inconclusive [inhibitor, single point]"
19,CCCCC1(C)NC(=O)N(CC(=O)Nc2cc(S(=O)(=O)N3CCOCC3)ccc2Cl)C1=O (configuration not stated),inactive
20,Cc1ccc(-n2nnnc2SCC(=O)N2CC(=O)Nc3ccccc32)cc1,"inconclusive [inhibitor, partial curve, poor fit]"
21,COC(=O)C1CCN(C(=O)c2cc(OC)c(OC)c(OC)c2)CC1,inactive
